From PubChem BioAssay AID624417 (National Center for Advancing Translational Sciences (NCATS), 2012)
The whole screen tested about 410,000 compounds, of which about 6,400 (1.6%) were called active. This list was built around the results that the source calls inconclusive (neither active nor inactive); the mix of calls is not that of the screen. Calls follow the shape of the dose curve; as a rule, active = well fitted inhibition curve with a large enough effect; inconclusive = small, poorly fitted or top-dose-only effect; inactive = no such curve, though single readings can be large or run the other way. A potency beside an inconclusive call is a rough fit, not a confirmed value.

biological target: Glucagon-like peptide 1 receptor (Homo sapiens) (UniProt P43220); assay: qHTS of GLP-1 Receptor Inverse Agonists (Inhibition Mode); conditions: HEK293 GLP-1R CRE-luciferase, luminescence, 24 h, GLP-1R form is constitutively active; activity change, negative = inhibition: at 38.3 µM (top of the series) unless noted; also: nearly all actives have a fitted effect of over 55% in size
Outline: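 Constitutively active GLP-1R drives a cAMP-responsive luciferase in stably transfected HEK293 cells; test compounds are added after overnight (12 h) attachment and left 24 hr, and signal loss in luminescence marks inhibition.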
% is scaled to controls: 0 for no effect and ±100 for the full control effect; potency is read from the fitted curve at half-maximal effect; tags tell the direction and shape of the fitted curve.

Chain of UniProt P43220 (P43220 whole entry, looked up): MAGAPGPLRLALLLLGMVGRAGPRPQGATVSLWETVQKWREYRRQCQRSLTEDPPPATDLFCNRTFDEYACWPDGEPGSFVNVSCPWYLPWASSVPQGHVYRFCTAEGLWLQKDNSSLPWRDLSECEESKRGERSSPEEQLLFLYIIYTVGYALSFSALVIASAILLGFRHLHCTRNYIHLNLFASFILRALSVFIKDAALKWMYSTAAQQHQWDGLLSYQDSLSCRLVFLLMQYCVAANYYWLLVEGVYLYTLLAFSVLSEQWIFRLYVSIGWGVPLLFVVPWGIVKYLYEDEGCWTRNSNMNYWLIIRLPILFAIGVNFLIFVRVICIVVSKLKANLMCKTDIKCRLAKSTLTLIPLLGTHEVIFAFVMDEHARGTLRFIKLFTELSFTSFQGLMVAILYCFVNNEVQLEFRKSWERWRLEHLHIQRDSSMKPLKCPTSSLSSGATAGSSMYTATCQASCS

Potency, inactive:
COC(=O)c1c(-c2ccc(OC)cc2)oc2ccc(-c3cc(OC)c(OC)c(OC)c3)cc12, Cc1ccn2cc(-c3ccc(O)c(O)c3)nc2c1, Cc1ccc(N2C(=O)C3C(C2=O)C(C(=O)c2ccc(Cl)cc2)N2CCCC32)cc1 (stereo not given), Cc1cccc(C)c1N(CC(O)Cn1c2ccccc2c2ccccc21)S(C)(=O)=O (stereo not given), O=C(NC1CCCCC1)N(CCN1CCOCC1)Cc1cc2cc3c(cc2[nH]c1=O)OCCO3, Clc1ccc(-c2nnc(Sc3nc4ccccc4o3)c3ccccc23)cc1, Cc1noc(Cn2c(=O)c3ccccc3n(CC(=O)Nc3ccc(Cl)cc3)c2=O)n1, COC(=O)[C@H](C)NC(=O)Nc1cccc(Br)c1, O=C(O)c1cc(O)c2c(c1)C(=O)c1cccc(O)c1C2=O

Potency, inconclusive:
CCOc1cc(CNCCc2ccc(S(N)(=O)=O)cc2)ccc1OCc1ccc(Cl)cc1 28.2 µM [inhibitor, single point], Cc1ccc(-c2ccc(/C=N/N3C(=O)C4C5C=CC(CC5)C4C3=O)o2)c([N+](=O)[O-])c1 (stereo not given) 11.2 µM [inhibitor, partial curve], COc1ccc(C(=O)Nc2nnc(Cc3cccs3)s2)cc1OC 0.447 µM [inhibitor, full curve, poor fit], CCOC(=O)c1cn(-c2c(Cl)cccc2Cl)c2cc(Cl)c([N+](=O)[O-])cc2c1=O 14.1 µM [inhibitor, single point], CO/N=C(/CS(=O)Cc1ccc(Cl)cc1)c1ccc(Cl)cc1 (stereo not given) 10 µM [inhibitor, single point], NC(=NCc1ccccc1)NC(=O)c1nc(Cl)c(N)nc1N 20 µM [inhibitor, single point], Cc1ccc(-n2nc3c(=O)n(CC(=O)NCCc4ccco4)nc(C)c3c2C)cc1 6.31 µM [inhibitor, partial curve], CCN1CCCC1CNC(=O)c1c(O)c2c([nH]c1=O)CCCC2 (stereo not given) 10 µM [inhibitor, partial curve, poor fit], CC(Oc1cccc(Br)c1)C(=O)Nc1cccc(S(=O)(=O)N2CCOCC2)c1 (stereo not given) 12.6 µM [inhibitor, partial curve], CCOC(=O)c1c(C2COc3ccccc3O2)csc1N (stereo not given) 5.62 µM [inhibitor, partial curve], Cc1cc(C)cc(NC(=O)CN2CCc3cc4c(cc3C2C)OCCCO4)c1 (stereo not given) 8.91 µM [inhibitor, partial curve, poor fit], COc1ccc(C(CC(=O)N2CCCC(C)C2)c2c(OC)cc(OC)c3c(-c4ccccc4)cc(=O)oc23)cc1 (stereo not given) 28.2 µM [inhibitor, single point], Cc1cc(Cl)c2oc(C(=O)N3CCN(c4ccncc4)CC3)c(C)c2c1 0.316 µM [inhibitor, full curve, poor fit], O=C(NCc1cccs1)C(=O)NCC(c1ccco1)N1CCN(c2ccccc2)CC1 (stereo not given) 11.2 µM [inhibitor, partial curve, poor fit], CCc1cccc(OCC(=O)Nc2ccc(S(=O)(=O)N3CCCC3)cc2)c1 8.91 µM [inhibitor, partial curve, poor fit], O=C(CCS(=O)(=O)c1nc(-c2ccc3c(c2)OCO3)cc(C(F)(F)F)n1)Nc1ccc(F)c(Cl)c1 28.2 µM [inhibitor, single point], Cc1ccc(C2=Nc3ccccc3N(C(=O)c3ccccc3)C(C)C2)cc1 (stereo not given) 12.6 µM [inhibitor, single point], O=C(Nc1nc2c(ccc3ccccc32)s1)c1ccco1 28.2 µM [inhibitor, single point], Cc1ccc(OCCNC(=O)c2ccc(COc3ccccc3)o2)cc1 15.8 µM [inhibitor, single point], c1ccc(-c2noc(C34CC5CC(CC(C5)C3)C4)n2)nc1 12.6 µM [inhibitor, partial curve], O=C(Nc1cc(Cl)ccc1Cl)C1(c2cccs2)CCOCC1 11.2 µM [inhibitor, partial curve, poor fit], CCc1ccc(NC(=O)C2CCCN(S(=O)(=O)c3cnc[nH]3)C2)cc1 (stereo not given) 11.2 µM [inhibitor, partial curve], COc1ccccc1Cc1c(C2CCCCC2)nc2ccc(Br)cn12 28.2 µM [inhibitor, single point], O=C(O)CC1=C(Nc2ccccc2)C(=O)N(c2ccccc2)C1c1ccc(Br)cc1 (stereo not given) 22.4 µM [inhibitor, single point], Cc1cccc(C)c1OCc1cc(C(=O)N(C)Cc2cc(C3CC3)n[nH]2)no1 15.8 µM [inhibitor, partial curve, poor fit], CC(=O)c1ccc(Nc2nc(C(N)C3CCCCC3)cs2)cc1 (stereo not given) 12.6 µM [inhibitor, partial curve, poor fit], OCCOCCn1c2ccccc2c2ccccc21 11.2 µM [inhibitor, partial curve, poor fit], CCN(CC(=O)NCc1ccc(Cl)cc1)C(=O)COc1cccc(Cl)c1 20 µM [inhibitor, partial curve, poor fit], Cc1nn(C2CCS(=O)(=O)C2)c(Cl)c1/C=C/C(=O)OCC(=O)c1c[nH]c2ccccc12 (stereo not given) 7.94 µM [inhibitor, partial curve, poor fit], O=C(Cc1coc2ccc3ccccc3c12)N1CCc2ccccc21 3.55 µM [inhibitor, full curve, poor fit]

Activity change, negative = inhibition, inconclusive:
CCCCN(C)CCCNC(=O)CN1N=C(c2ccc(Cl)cc2)CCC1=O -42.3% [inhibitor]
